PubChem BioAssay AID686979 (National Center for Advancing Translational Sciences (NCATS), 2013)
Screen size: about 420,000 compounds; about 50,000 (12%) were called active. This list was built around the results that the source calls inconclusive (neither active nor inactive); the mix of calls is not that of the screen. Calls come from the whole dose curve; as a rule, active = well fitted inhibition curve with a large enough effect; inconclusive = small, poorly fitted or top-dose-only effect; inactive = flat fitted curve, though single readings scatter. No potency is given beside an inconclusive call; the fits are too rough.

Test: qHTS for Inhibitors of human tyrosyl-DNA phosphodiesterase 1 (TDP1): qHTS in cells in presence of CPT; note: nearly all actives have a fitted effect of over 55% in size
Details: chicken DT40 Tdp1-/-;hTDP1 cells + 20 nM CPT, ATP luminescence, 48 h; activity change, negative = growth inhibition: at 46.2 µM (top of the series) unless noted
Method in brief: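 Chicken DT40 Tdp1-/- cells complemented with human TDP1, 400 cells/well, exposed to compounds plus 20 nM camptothecin for at least 48 h at 37 C; viability read as ATP content by CellTiter-Glo luminescence.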
% is set by controls: 0 for no effect and ±100 for the full control effect; potency is the fitted concentration of half-maximal effect; tags give direction and shape of the fitted curve.

Row | SMILES | Potency | activity change, negative = growth inhibition
1 | COc1ccc(-c2cc3c(=O)n(CC(=O)Nc4cc(C)ccc4C)ccn3n2)cc1 | inactive | –
2 | COc1ccc(N=C2SCC(c3ccc([N+](=O)[O-])cc3)=NN2CCO)cc1 | inactive | –
3 | COc1ccc(-n2c(SCC(=O)NC3CCCCC3)nc3c([nH]c4ccccc43)c2=O)cc1 | inconclusive [inhibitor, single point] | –
4 | CCCCc1nc2ccccc2c(=O)n1NC(=O)c1c(O)c2cccc3c2n(c1=O)CC3 | inconclusive [inhibitor, single point] | –
5 | COc1ccc(C(=O)Nc2ccc(Br)cn2)cc1S(=O)(=O)N1CCOCC1 | inactive | –
6 | COc1ccc(S(=O)(=O)N2CCOC2CNC(=O)C(=O)NCc2ccc(F)cc2)cc1 (stereo not drawn) | inactive | –
7 | Cc1ccc2c(NC(=S)NC(=O)c3ccccc3)cccc2n1 | inconclusive [inhibitor, single point] | –
8 | Oc1ccc(CN2CCN(c3ccccc3)CC2)c2cccnc12 | active: 5.17 µM | –
9 | Cn1cccc1Cc1nnc(SCC(=O)Nc2ccc(F)cc2)n1-c1ccc(F)cc1 | inconclusive [inhibitor, single point] | –
10 | Fc1ccc(/C=N/Nc2cc(N3CCOCC3)ncn2)cc1 | inactive | –
11 | O=C(CSc1nnc(CNC(=O)c2c(F)cccc2Cl)o1)NCc1ccccc1 | inconclusive [inhibitor, single point] | –
12 | O=C1ON=C(c2ccc([N+](=O)[O-])cc2)/C1=C/c1ccccc1O | inconclusive [inhibitor, single point] | –
13 | COc1ccc(CCNC(=O)CCC(=O)N2CCOc3ccc(Cl)cc32)cc1OC | inconclusive [inhibitor, single point] | –
14 | O=C(/C=C/c1ccc([N+](=O)[O-])s1)N1CCN(c2ccccc2)CC1 | inconclusive [inhibitor, single point] | –
15 | CCc1ccc(CN(Cc2ccco2)C(=O)c2ccc(C)cc2)cc1 | inconclusive [inhibitor, single point] | –
16 | CCOc1ccc(NC(=O)CC2C(=O)N(c3cccc(C)c3)C(=O)N2CCC2=CCCCC2)cc1 (stereo not drawn) | inconclusive [inhibitor, single point] | –
17 | O=C(/C=C/c1ccc([N+](=O)[O-])cc1)OCC(=O)N1CCCC1 | – | inconclusive: 1.05% [inhibitor]
18 | CCn1cc(C(=O)N2CCCC(C(=O)c3cccc(C(F)(F)F)c3)C2)cn1 (stereo not drawn) | inconclusive [inhibitor, single point] | –
19 | Cc1cc(C(=O)NN)c(Cl)cc1Cl | inactive | –
20 | COc1ccc(-c2nc(CS(=O)CC(=O)NCCCN3CCOCC3)c(C)o2)cc1OC (stereo not drawn) | – | inconclusive: -30.4% [inhibitor]
21 | Cc1c(NC(=S)NCc2ccc(F)cc2)cccc1[N+](=O)[O-] | active: 20.6 µM | –
22 | O=C(NCCn1c(C(F)(F)F)nc2ccccc21)[C@H]1CCCN1c1nc(CN2CCCCC2)cs1 | inactive | –
23 | NC(=O)c1ccc(Cn2c(C(=O)c3ccc(Cl)cc3)c3ccccc3[n+]2[O-])cc1 | inconclusive [inhibitor, single point] | –
24 | CSc1ccc(/C=C/c2nc3ccccc3n2S(=O)(=O)c2ccc(F)c(C)c2)cc1 | active: 18.4 µM | –
25 | CC(=O)N(Cc1cccnc1)c1nc2cc(C)cc(C)c2s1 | inconclusive [inhibitor, single point] | –

Row | SMILES | Potency | activity change, negative = growth inhibition
26 | CC(=O)Nc1ccc(NC(=O)c2nc(-c3ccccc3)oc2C)cc1 | inconclusive [inhibitor, single point] | –
27 | O=C(CN(CCO)Cc1ccccc1)N1CCN(S(=O)(=O)c2ccccc2)CC1 | inactive | –
28 | CCN(CC)c1ccc(CN(C(=O)c2cccs2)C2CCS(=O)(=O)C2)cc1 (stereo not drawn) | inconclusive [inhibitor, single point] | –
29 | COc1cccc(OC)c1OCCCc1c(C)n[nH]c1C | inactive | –
30 | O=C(Nc1ccccc1)N(Cc1cccs1)c1ccc(Cl)cc1 | inconclusive [inhibitor, single point] | –
31 | CCOc1ccccc1NC(=O)CSc1n[nH]c(N)n1 | inactive | –
32 | CC(=O)Nc1ccccc1-c1nc2ccccc2n(C(C)C(=O)Nc2cccc(C)c2C)c1=O (stereo not drawn) | active: 20.6 µM | –
33 | CCNc1nc(NC(C)C)nc(N(C#N)Cc2ccccc2)n1 | inconclusive [inhibitor, single point] | –
34 | CSc1ccccc1NC(=O)CN(C)C(=O)c1ccc(-n2cccn2)cc1 | inconclusive [inhibitor, single point] | –
35 | Cc1ccc2c(c1)C(=O)CC(c1ccc3c(c1)OCCO3)O2 (stereo not drawn) | inconclusive [inhibitor, single point] | –
36 | O=c1ccc2ccccc2c2ccccc12 | active: 2.91 µM | –
37 | CCCCCNC(=O)C(c1ccc(OC)cc1)n1c(=O)c(-c2ccco2)nc2ccccc21 (stereo not drawn) | active: 16.4 µM | –
38 | CCc1ccc(C(=O)c2cn(CC(=O)Nc3cccc(C)c3C)c3nc(C)ccc3c2=O)cc1 | – | inconclusive: -26% [inhibitor]
39 | COc1cccc(Oc2coc3cc(OC(=O)N4CCOCC4)ccc3c2=O)c1 | inconclusive [inhibitor, single point] | –
40 | c1ccc(C2[C@H]3CN(Cc4cccnc4)[C@H](c4ccccc4)C34CC2(c2ccccc2)C4)cc1 (stereo partly drawn) | inconclusive [inhibitor, single point] | –
41 | Cn1c(=O)c(C(=O)CN2CCc3ccccc32)c(N)n(Cc2ccccc2)c1=O | active: 13 µM | –
42 | CC(=O)Oc1ccc(C(=O)Nc2cc(C)on2)cc1 | inactive | –
43 | O=P(c1ccccc1)(c1ccccc1)C(O)c1ccncc1 (stereo not drawn) | inactive | –
44 | COC(=O)c1ccc(NC(=O)CSc2nnc(-c3ccncc3)n2C)cc1 | – | inconclusive: -34.2% [inhibitor]
45 | COc1ccccc1C(=O)N(Cc1ccco1)Cc1ccccc1F | inconclusive [inhibitor, single point] | –
46 | COC(=O)N1CCC2(CCN(Cc3ccc(C#N)cc3)CC2)CC1 | active: 1.64 µM | –
47 | COc1ccc(Cl)cc1NC(=O)CN1C(=O)CSc2ccc(S(=O)(=O)N3CCCC3)cc21 | active: 16.4 µM | –
48 | CN(CCc1ccccc1)c1cc2c(c3c1ccn3C)C1CCC2O1 (stereo not drawn) | inconclusive [inhibitor, single point] | –
49 | Cc1cccc(N2CCN(C(=O)/C=C/c3cccs3)CC2C)c1 (stereo not drawn) | inconclusive [inhibitor, single point] | –
50 | O=C(C1CC1)N1CCc2cc(Br)cc(S(=O)(=O)NCc3ccc4c(c3)OCO4)c21 | inactive | –

Row | SMILES | Potency | activity change, negative = growth inhibition
51 | O=C1C=CC(=NN=C(c2ccccc2)c2ccccc2)C=C1 | inconclusive [inhibitor, single point] | –
52 | CC(=O)Nc1ccc(NCN2C(=O)[C@@H]3[C@H]4CC[C@H](C4)[C@@H]3C2=O)cc1 | inactive | –
53 | CCCCN(CC)C(=O)C1CCC(CNS(=O)(=O)c2cccc3nsnc23)CC1 (stereo not drawn) | active: 23.1 µM | –
54 | CCCCNC(=O)C1(C)CCN1C(=O)c1ccc(OC)c(F)c1 (stereo not drawn) | – | inconclusive: -35% [inhibitor]
55 | Cc1cc(NC(=O)c2ccco2)cc(-c2nc3cc(Cl)ccc3o2)c1O | active: 18.4 µM | –
56 | COCCn1c(C)cc(C(=O)COc2ccc(N(C)S(=O)(=O)c3ccc(C)cc3)cc2)c1C | active: 18.4 µM | –
57 | Cc1cc(C)c(C(=O)N2CCC(N3CCC(C(=O)NC(C)C)CC3)CC2)o1 | inactive | –
58 | COc1ccc(-c2ccc(SCc3cccnc3)nn2)cc1OC | inconclusive [inhibitor, single point] | –
59 | COc1ccc(C(=O)OCCNC(=O)c2ccncc2)cc1OC | inactive | –
60 | CCC(C(=O)N(C)Cc1ccccc1)n1nc(C)c2sc3ccccc3c2c1=O (stereo not drawn) | inconclusive [inhibitor, single point] | –
61 | O=C(O)c1ccc(N/N=C/c2ccc3nccnc3c2)cc1 | active: 11.6 µM | –
62 | Cn1c(-c2ccccc2)c(Sc2ccccc2)c2cc(-c3ccc4cc[nH]c4c3)ccc21 | inconclusive [inhibitor, single point] | –
63 | CC1CCN(c2ccc(C(=O)NCc3ccco3)cc2[N+](=O)[O-])CC1 | inconclusive [inhibitor, single point] | –
64 | COCc1ccc(CN2CCC(n3nccc3NC(=O)CCOc3ccccc3)CC2)o1 | inactive | –
65 | C=CCn1c(SCC(C)=O)nnc1-c1cc(-c2ccccc2)sc1N | inconclusive [inhibitor, partial curve] | –
66 | COc1ccc(CCNC(=O)C2=C(C)C(=O)OC23CCCCC3)c(OC)c1 | inconclusive [inhibitor, single point] | –
67 | CN(CCc1ccccn1)C1CCCN(S(=O)(=O)c2ccc(F)c(Cl)c2)C1 (stereo not drawn) | inconclusive [inhibitor, single point] | –
68 | COC(=O)C1=C(C)N(Cc2ccc(C)cc2)C(=O)/C1=C\c1cc(OC)c(OC)c(OC)c1 | inconclusive [inhibitor, single point] | –
69 | Cc1ccc(S(=O)(=O)NCc2ccccc2)cc1C(=O)N(C)CC(=O)Nc1c(Cl)cccc1Cl | active: 23.1 µM | –
70 | O=C(CNc1ccccc1Cl)c1ccc(Br)cc1 | inconclusive [inhibitor, single point] | –
71 | COc1ccc(CNC(=O)CCc2c(C)nn(-c3ccc(N4CCOCC4)nn3)c2C)cc1 | inactive | –
72 | N#Cc1c(N)n(-c2ccc(N)cc2)c2nc3ccccc3nc12 | inactive | –
73 | COc1ccc(CCNC(=O)Nc2ccc3c(c2)c(=O)n(C)n3Cc2ccc(Cl)cc2)cc1OC | active: 8.2 µM | –
